No constants are given. Whether binding was seen depends on the method and setting. Binding seen in cells or lysates may run through a third protein. Some results given as binding are weak or reduced against the parent protein; the word gives no strength. Each block holds one substance with its values, some of them ahead of it.
Columns and labels:
[1] = target: tissue factor (TF), endogenous, cellular (human (endogenous in MDA-MB-231)) (UniProt P13726); test: proximity ligation; MDA-MB-231 cells (10^4) transfected to express the constructs, 48 h; Duolink PLA with mouse anti-HA-tag (C29F4) paired with rabbit polyclonal anti-β1-integrin or anti-TF antibody, overnight at 4 °C
[2] = target: β1-integrin (endogenous, cellular) (human (endogenous in MDA-MB-231 and HDBEC)) (UniProt P05556); test: proximity ligation; HDBEC (5 × 10^4) transfected to express the constructs, 48 h; Duolink PLA with mouse anti-HA-tag (C29F4) and rabbit polyclonal anti-β1-integrin antibodies, overnight at 4 °C
[3] = target: β1-integrin (endogenous, cellular) (human (endogenous in MDA-MB-231 and HDBEC)) (UniProt P05556); test: proximity ligation; MDA-MB-231 cells (10^4) transfected to express the constructs, 48 h; Duolink PLA with mouse anti-HA-tag (C29F4) paired with rabbit polyclonal anti-β1-integrin or anti-TF antibody, overnight at 4 °C
[4] = target: combined EGF4-βTD domains of β1-integrin (residues 572–728) (human) (UniProt P05556); test: co-IP; MDA-MB-231 cells (1.5 × 10^5) transfected 48 h, lysed in PhosphoSafe buffer; constructs captured with anti-FLAG-tag antibody (4 µg) at 4 °C overnight and protein A-magnetic beads, five washes with PBST; blot with anti-β1-integrin or anti-TF (HTF-1) antibody
[5] = target: lower fibronectin-like domain of TF extracellular domain (residues 106–219; LED) (human) (UniProt P13726); test: as above

Protein sequences, listed by entry. Tags and fused reporters are not part of them. Lines headed by an entry give the natural chain unless they say otherwise; changes in a name come on top. Residues count along the entry.
UniProt P05556: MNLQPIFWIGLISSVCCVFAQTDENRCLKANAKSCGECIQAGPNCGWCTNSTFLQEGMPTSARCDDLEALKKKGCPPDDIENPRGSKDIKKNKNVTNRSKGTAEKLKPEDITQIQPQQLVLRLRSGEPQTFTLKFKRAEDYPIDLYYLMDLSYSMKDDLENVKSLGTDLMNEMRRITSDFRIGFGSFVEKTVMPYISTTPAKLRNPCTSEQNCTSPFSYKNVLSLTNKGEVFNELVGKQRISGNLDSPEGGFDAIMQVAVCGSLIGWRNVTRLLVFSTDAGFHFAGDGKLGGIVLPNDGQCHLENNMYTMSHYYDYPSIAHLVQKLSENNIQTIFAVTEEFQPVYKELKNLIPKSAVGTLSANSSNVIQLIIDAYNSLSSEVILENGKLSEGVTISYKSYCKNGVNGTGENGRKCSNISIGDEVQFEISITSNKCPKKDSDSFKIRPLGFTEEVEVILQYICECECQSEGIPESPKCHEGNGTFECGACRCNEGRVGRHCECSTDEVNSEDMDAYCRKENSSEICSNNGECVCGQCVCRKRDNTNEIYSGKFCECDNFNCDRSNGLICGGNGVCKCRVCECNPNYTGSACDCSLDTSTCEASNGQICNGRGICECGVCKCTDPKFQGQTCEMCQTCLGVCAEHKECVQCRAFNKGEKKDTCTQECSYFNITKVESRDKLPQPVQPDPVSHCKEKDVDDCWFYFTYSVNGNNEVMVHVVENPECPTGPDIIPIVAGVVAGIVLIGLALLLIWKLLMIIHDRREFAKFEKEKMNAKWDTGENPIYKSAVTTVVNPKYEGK
combined EGF4-βTD domains of β1-integrin (residues 572–728): residues 572-728 of P05556
EGF4 domain of β1-integrin (residues 572–610): residues 572-610 of P05556

binding [1]: no binding
Substance: EGF4 domain of β1-integrin (residues 572–610) (from UniProt P05556-1 572-610) (domain or fragment)

binding [1]: binds
Substance: combined EGF4-βTD domains of β1-integrin (residues 572–728) (from UniProt P05556-1 572-728) (domain or fragment)

binding [5]: binds
Substance: β1-integrin (endogenous, cellular) (from UniProt P05556 21-798) (receptor)

Second part, the substance before the results:

Substance: lower fibronectin-like domain of TF extracellular domain (residues 106–219; LED) (from UniProt P13726-1 138-251) (domain or fragment)
binding [2]: binds | binding [3]: binds

Substance: tissue factor (TF), endogenous, cellular (from UniProt P13726 33-295) (receptor)
binding [4]: binds

— PMC11853675
